Hit rate of the full screen: of about 270,000 compounds, about 5,800 (2.1%) were called active. Inconclusive means that the source gave no clear call. Such entries were picked first, then a sample of the others. Calls come from the whole dose curve; as a rule, active = well fitted inhibition curve with a large enough effect; inconclusive = small, poorly fitted or top-dose-only effect; inactive = flat fitted curve, though single readings scatter. Potencies beside an inconclusive call are fits to weak or partial responses and may not hold up.
Biological target: Microtubule-associated protein tau (Homo sapiens) (UniProt P10636)
Chain of UniProt P10636 (P10636 whole entry, looked up): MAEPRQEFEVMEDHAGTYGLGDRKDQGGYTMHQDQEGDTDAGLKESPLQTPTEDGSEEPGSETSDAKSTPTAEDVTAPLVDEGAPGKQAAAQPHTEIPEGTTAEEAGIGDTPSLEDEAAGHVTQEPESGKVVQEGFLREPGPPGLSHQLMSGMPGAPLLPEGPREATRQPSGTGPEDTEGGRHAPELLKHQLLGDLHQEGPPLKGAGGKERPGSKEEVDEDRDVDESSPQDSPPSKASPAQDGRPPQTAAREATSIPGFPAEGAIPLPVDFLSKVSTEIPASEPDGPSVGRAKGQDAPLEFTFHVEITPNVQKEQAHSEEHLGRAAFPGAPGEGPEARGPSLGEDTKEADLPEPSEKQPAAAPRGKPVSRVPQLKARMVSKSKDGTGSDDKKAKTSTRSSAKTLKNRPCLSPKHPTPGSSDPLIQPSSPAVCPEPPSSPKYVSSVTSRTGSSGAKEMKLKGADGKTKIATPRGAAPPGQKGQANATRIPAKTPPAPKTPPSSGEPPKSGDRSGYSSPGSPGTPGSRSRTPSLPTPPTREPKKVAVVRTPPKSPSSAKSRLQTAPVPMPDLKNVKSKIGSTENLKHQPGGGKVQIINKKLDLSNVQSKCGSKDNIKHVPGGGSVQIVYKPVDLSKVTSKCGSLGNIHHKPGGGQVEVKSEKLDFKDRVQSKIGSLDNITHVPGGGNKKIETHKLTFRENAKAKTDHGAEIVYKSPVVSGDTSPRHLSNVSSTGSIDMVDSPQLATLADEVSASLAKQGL
Test: qHTS for Inhibitors of Tau Fibril Formation, Thioflavin T Binding; note: nearly all actives have a fitted effect of over 55% in size
Details: recombinant tau K18 P301L (four-repeat tau fragment), heparin-induced fibrillization, ThT fluorescence; series mostly up to 57.4 µM; activity, negative = inhibition: at the top concentration
How it was run: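 K18 P301L tau (15 uM + 0.24 uM Alexa 594-tagged), heparin 20 uM, NaOAc pH 7, 6 h 37 C; ThT 30 uM, 1 h RT, ex 450/em 510 nm.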
% is set by controls: 0 for no effect and ±100 for the full control effect; potency is the fitted concentration of half-maximal effect; tags give direction and shape of the fitted curve.

Row | SMILES | Potency | activity, negative = inhibition
1 | CC1=C(C(=O)OCC(C)C)[C@]23C(=O)c4ccccc4[C@@]2(O1)OC(N)=C3C#N | inconclusive: 28.2 µM [inhibitor, single point] | 
2 | COc1ccc(-c2noc(CC(=O)Nc3ccc(Br)cc3C)n2)cc1 |  | inactive: 4.17%
3 | COc1ccc(OC)c(N/C(C)=C/C(=O)c2ccc(Br)cc2)c1 | inconclusive: 10 µM [inhibitor, partial curve] | 
4 | Cn1c(O)c(/C=C2\C=NN=C2c2ccccc2)sc1=S | inconclusive: 3.55 µM [inhibitor, full curve, poor fit] | 
5 | COc1ccc(C)cc1NC(=O)C1COc2ccccc2C1 (configuration not stated) |  | inactive: 1.62%
6 | COc1ccc(-c2ccc(/C=N/N3C(=O)C4C5C=CC(C6CC56)C4C3=O)o2)c([N+](=O)[O-])c1 (configuration not stated) | inconclusive: 7.94 µM [inhibitor, partial curve] | 
7 | CCN1CCN(C(=S)NCc2ccc(C)cc2)CC1 |  | inactive: 1.43%
8 | CCc1nnc(SCC(=O)Nc2ccc(C(C)=O)cc2)nc1CC | inconclusive: 35.5 µM [inhibitor, single point] | 
9 | COc1ccc(C2c3c(oc4ccc(C)cc4c3=O)C(=O)N2CCCN2CCOCC2)cc1OC (configuration not stated) |  | inactive: 7.73%
10 | COc1ccc(C(=O)Nc2ccccc2C(=O)N/N=C/c2ccc(O)c(OC)c2)cc1 | inconclusive: 12.6 µM [inhibitor, partial curve] | 
11 | O=C(/C=C/c1ccc2c(c1)OCO2)Nc1nc2ccc(F)cc2s1 | inconclusive: 0.224 µM [inhibitor, full curve, poor fit] | 
12 | c1ccc(Cc2nn3c(C4COc5ccccc5O4)nnc3s2)cc1 (configuration not stated) | inconclusive: 35.5 µM [inhibitor, partial curve] | 
13 | NC(=O)Cc1nc(-c2ccc(F)cc2)cs1 |  | inactive: -2.78%
14 | COc1ccccc1C1=NOC(COC(=O)c2ccc3ccccc3n2)C1 (configuration not stated) | inconclusive: 6.31 µM [inhibitor, partial curve] | 
15 | Cc1cc(C)n2nc(SCC(=O)N(C)C)nc2n1 |  | inactive: -15.9%
16 | O=C1/C(=C/c2cccnc2)SC(=S)N1c1ccc(O)cc1 | inconclusive: 0.355 µM [inhibitor, partial curve] | 
17 | COC(CNC(=O)c1ccc2c(c1)ncn2-c1cccc(F)c1)OC |  | inactive: -4.1%
18 | CCOc1ccc(/C=C2\SC(=S)N(NC(=O)c3ccncc3)C2=O)cc1OC | inconclusive: 4.47 µM [inhibitor, partial curve] | 
19 | CC(=O)c1c(C)nc(-c2ccc(Cl)cc2Cl)n1O |  | inactive: -0.253%
20 | COc1c2c(c(C(=O)/C=C/C(C)=C/c3ccccc3)c3c1OCO3)CCN(C)C2 | inconclusive: 17.8 µM [inhibitor, partial curve] | 
21 | COc1cccc(C(=O)NCCN2C(=O)S/C(=C/c3cccs3)C2=O)c1OC | inconclusive: 17.8 µM [inhibitor, partial curve, poor fit] | 
22 | CCc1ccc(-c2csc(NC(=O)Oc3ccccc3)n2)cc1 | inconclusive: 11.2 µM [inhibitor, partial curve, poor fit] | 
23 | CCCC(C)NC(=O)COC(=O)c1cccc(NS(C)(=O)=O)c1 (configuration not stated) |  | inactive: -0.97%

Row | SMILES | Potency | activity, negative = inhibition
24 | O=C(c1ccc(S(=O)(=O)c2cccc(Cl)c2)c([N+](=O)[O-])c1)N1CCN(Cc2ccccc2)CC1 | inconclusive: 28.2 µM [inhibitor, partial curve] | 
25 | Cc1ccc(S(=O)(=O)N2CCCCC2C(=O)NCc2ccco2)cc1 (configuration not stated) |  | inactive: -13%
26 | O=C(Nc1ccc2c(c1)OCO2)c1cc(-c2ccc(Br)cc2)on1 | inconclusive: 0.562 µM [inhibitor, full curve] | 
27 | Cc1cc(C(=O)N/N=C/C=C/c2ccccc2)c(C)o1 | inconclusive: 14.1 µM [inhibitor, partial curve] | 
28 | O=C(NCCN1C(=O)C2C3C=CC(C3)C2C1=O)Nc1ccccc1 (configuration not stated) |  | inactive: -12.7%
29 | Cc1ccc(CNC(=O)[C@@H]2C[C@H]2[C@@H](NP(=O)(c2ccccc2)c2ccccc2)c2ccccc2)o1 | inconclusive: 31.6 µM [inhibitor, single point] | 
30 | CCc1cc2cc3c(cc2nc1SCC(=O)N1CCN(C(=O)c2ccco2)CC1)OCO3 | inconclusive: 31.6 µM [inhibitor, single point] | 
31 | CN(C)c1ccc(N2C(=O)CC(Sc3ccccc3C(=O)O)C2=O)cc1 (configuration not stated) | inconclusive: 15.8 µM [inhibitor, partial curve] | 
32 | Cn1c(=O)c2c(-c3ccc(Br)cc3)n(CCc3ccccc3)cc2n(C)c1=O | inconclusive: 22.4 µM [inhibitor, single point] | 
33 | O=[N+]([O-])c1ccccc1NCc1ccc(Cl)cc1 | inconclusive: 15.8 µM [inhibitor, partial curve] | 
34 | CC(=NCCCNC1CCCCC1)C1=C(O)CC(C)(C)CC1=O |  | inactive: -5.33%
35 | Cc1ccc(NC(=O)c2sccc2C)cc1[N+](=O)[O-] | inconclusive: 39.8 µM [inhibitor, single point] | 
36 | Cc1ccc(NC(=O)c2oc3ccc(S(=O)(=O)N4CCCCC4)cc3c2C)cc1Cl | inconclusive: 44.7 µM [activator, single point] | 
37 | CC1=C(C(=O)Nc2ccccn2)C(c2ccc(Cl)cc2)NC(=S)N1 (configuration not stated) |  | inactive: -9.65%
38 | COc1ccc(N2CCN(CCNC(=O)c3c(C)cc(=O)oc3C)CC2)cc1 | inconclusive: 5.01 µM [inhibitor, partial curve] | 
39 | O=C(Nc1ccc2oc(-c3ccncc3)nc2c1)c1ccc(F)cc1 | inconclusive: 2.24 µM [inhibitor, full curve, poor fit] | 
40 | Cn1ncc(Cl)c1C(=O)Nc1cccc(Cl)c1 | active: 12.6 µM | 
41 | O=C(Cn1nnc(-c2ccccc2)n1)NNC(=O)c1ccccc1 |  | inactive: 6.07%
42 | Cc1ccc(Cn2c(=N)n(CC(=O)c3ccccc3)c3ccccc32)cc1 | inconclusive: 39.8 µM [inhibitor, single point] | 
43 | COC(=O)c1ccc(Nc2cc(C)nc(-c3ccccc3O)n2)cc1 |  | inactive: 1.28%
44 | CN(C)/C=C/C(=O)c1cnc(-c2ccccn2)s1 | inconclusive: 10 µM [inhibitor, partial curve] | 
45 | C(=C\c1ccccc1)/CN1CCN(c2ncnc3c2oc2ccccc23)CC1 | inconclusive: 17.8 µM [inhibitor, partial curve] | 
46 | COc1ccc(NC(=O)c2cc3c(s2)CCC3)cc1S(=O)(=O)N1CCOCC1 | inconclusive: 28.2 µM [inhibitor, partial curve, poor fit] | 

Row | SMILES | Potency | activity, negative = inhibition
47 | COc1ccc2c(Cl)c(C(=O)OCC(=O)c3ccc4c(c3)NC(=O)CO4)sc2c1Cl | inconclusive: 0.562 µM [inhibitor, partial curve] | 
48 | CC1=C(C(=O)OCc2ccccc2)C(c2ccc(Cl)cc2Cl)NC(=O)N1CCCCCC(=O)O (configuration not stated) | inconclusive: 20 µM [inhibitor, partial curve] | 
49 | Cc1cc(/C=C/C(=O)O)c(C)n1-c1ccc(Cl)cc1 |  | inactive: -8.39%
50 | COc1ccc(CCNC(=O)CCc2c(C)nc3c(c(C)nn3-c3ccc(C)c(C)c3)c2C)c(OC)c1OC | inconclusive: 31.6 µM [inhibitor, single point] | 
51 | CC(C)CCOc1ccc(C2=NNC(=O)CC2)cc1 | inconclusive: 20 µM [inhibitor, partial curve] | 
52 | Cc1ccc(NC(=O)CCn2c(=O)c3cccn3c3ccccc32)c(Cl)c1 | inconclusive: 28.2 µM [inhibitor, single point] | 
53 | Cc1ccccc1-c1n[nH]c(=S)n1/N=C/C=C/c1ccco1 | inconclusive: 31.6 µM [inhibitor, partial curve] | 
54 | COc1ccc(C(=O)/C=C/N(C)C)cc1 | inconclusive: 20 µM [inhibitor, partial curve] | 
55 | CCOC(=O)c1nnn(CC(=O)Nc2ccccc2OC)c1C(=O)OCC |  | inactive: -15.4%
56 | Cn1c(N)c(C(=O)CSc2nnc(-c3ccccc3F)n2N)c(=O)n(C)c1=O | inconclusive: 17.8 µM [inhibitor, single point] | 
57 | NC(=O)c1cccc(-c2cc(Nc3ccc(OC(F)(F)F)cc3)ncn2)c1 | inconclusive: 28.2 µM [activator, partial curve] | 
58 | COc1ccc(-n2nc(C(=O)N(C)c3cccc(C(F)(F)F)c3)c3c4ccccc4n(C)c3c2=O)cc1 |  | inactive: -3.66%
59 | COc1ccc(/C=C/c2c([N+](=O)[O-])c(=O)n(C)c(=O)n2C)cc1 | inconclusive: 25.1 µM [inhibitor, partial curve] | 
60 | COc1cccc(CNC(=O)CCn2c(=O)c3cccn3c3ccc(F)cc32)c1OC | inconclusive: 39.8 µM [inhibitor, single point] | 
61 | CCOC(=O)/C=c1\s/c(=C\c2c(OCC)ccc3ccccc23)c(=O)n1CC(=O)NCC1CCCO1 (configuration not stated) | inconclusive: 31.6 µM [inhibitor, partial curve, poor fit] | 
62 | Oc1cccc(/C=N/Nc2cc(N3CCOCC3)nc(N3CCOCC3)n2)c1 | inconclusive: 17.8 µM [inhibitor, partial curve] | 
63 | COc1ccc2c(c1)O[C@@H](c1ccc3c(c1)OCO3)[C@H](OC(=O)NCCc1ccc(OC)c(OC)c1)C2=O | inconclusive: 35.5 µM [inhibitor, single point] | 
64 | CCCCOc1ccc(CNC(=O)CN2CCSc3ccccc32)cc1 | inconclusive: 39.8 µM [inhibitor, single point] | 
65 | CN(C(=O)CSc1nc2ccc([N+](=O)[O-])cc2s1)C1CCS(=O)(=O)C1 (configuration not stated) | inconclusive: 17.8 µM [inhibitor, single point] | 
66 | CCN(CC)S(=O)(=O)c1ccc2c(c1)nc(SCc1nc3ccsc3c(=O)[nH]1)n2CC | inconclusive: 20 µM [inhibitor, single point] | 
67 | O=S(=O)(c1ccc(Br)cc1)c1nc(-c2ccco2)oc1SCc1ccccc1Cl |  | inactive: -2.69%
